# Measured values reported in patent publication US8669255B2, “Substituted octahydropyrrolo[1,2-a]pyrazines as calcium channel blockers” (AbbVie Inc., priority 2011, dated 2014).
# Target: human Cav2.2 (Homo sapiens, UniProt Q00975)
# Experiment: In vitro assessment of calcium channel activity using FLIPR (Ca2+ influx in IMR32 cells)
# Format: cell-based
# Conditions: IMR32 cells endogenously expressing human Cav2.2; 60 minute pre-incubation; 2 μM nifedipine; depolarized with 80 mM KCl; average of at least two runs unless marked (*)
row,IC50 [nM],Structure (SMILES)
1,2700,"O=C(NC(c1ccccc1)c1ccccc1)[C@H]1C[C@H]2CN(C(c3ccccc3)c3ccccc3)CCN2C1 [Example 105, (7S,8aS)-N,2-bis(diphenylmethyl)octahydropyrrolo[1,2-a]pyrazine-7-carboxamide]"
2,11500,"O=C(N[C@H]1C[C@H]2CN(C(=O)c3ccc(F)cc3Cl)CCN2C1)c1cccc(C(F)(F)F)c1 [Example 12, N-[(7S,8aS)-2-(2-chloro-4-fluorobenzoyl)octahydropyrrolo[1,2-a]pyrazin-7-yl]-3-(trifluoromethyl)benzamide]"
3,7290,"FC(F)(F)c1ccnc(N2CCN3CC[C@@H](Oc4ccc(Cl)cn4)[C@H]3C2)c1 (relative stereo) [Example 104, (8R*,8aR*)-8-[(5-chloropyridin-2-yl)oxy]-2-[4-(trifluoromethyl)pyridin-2-yl]octahydropyrrolo[1,2-a]pyrazine]"
4,2160,"O=C(c1cccc(C(F)(F)F)c1)N1CCN2CC[C@@H](Oc3ccc(Cl)cn3)[C@@H]2C1 (relative stereo) [Example 100, [(8R*,8aS*)-8-[(5-chloropyridin-2-yl)oxy]hexahydropyrrolo[1,2-a]pyrazin-2(1H)-yl][3-(trifluoromethyl)phenyl]methanone]"
5,420,"O=C(C(c1ccc(C(F)(F)F)cc1)N1CCCC1)N1CCN2C[C@H](Oc3cnc(C4CC4)cn3)C[C@H]2C1 (stereo partly drawn) [Example 196, 1-[(7R,8aS)-7-[(5-cyclopropylpyrazin-2-yl)oxy]hexahydropyrrolo[1,2-a]-pyrazin-2(1H)-yl]-2-(pyrrolidin-1-yl)-2-[4-(trifluoromethyl)phenyl]ethanone]"
6,22800,"CC(C)(C)C(=O)N1CCN2C[C@@H](NC(=O)c3cccc(C(F)(F)F)c3)C[C@H]2C1 [Example 16, N-[(7S,8aS)-2-(2,2-dimethylpropanoyl)octahydropyrrolo[1,2-a]pyrazin-7-yl]-3-(trifluoromethyl)benzamide]"
7,1010,"O=C(C(NC(=O)C(F)(F)F)c1cccc(C(F)(F)F)c1)N1CCN2C[C@H](Oc3cnc(C4CC4)cn3)C[C@H]2C1 (stereo partly drawn) [Example 199, N-{2-[(7R,8aS)-7-[(5-cyclopropylpyrazin-2-yl)oxy]hexahydropyrrolo[1,2-a]pyrazin-2(1H)-yl]-2-oxo-1-[3-(trifluoromethyl)phenyl]ethyl}-2,2,2-trifluoroacetamide]"
8,7780,"CC(C)(O)c1cccc(C(=O)N2CCN3C[C@H](Oc4cnc(C5CC5)cn4)C[C@H]3C2)c1 [Example 128, [(7R,8aS)-7-[(5-cyclopropylpyrazin-2-yl)oxy]hexahydropyrrolo[1,2-a]-pyrazin-2(1H)-yl][3-(2-hydroxypropan-2-yl)phenyl]methanone]"
9,290,"CCC(CC)CN1CCN2C[C@@H](NS(=O)(=O)c3cccc(C(F)(F)F)c3)C[C@H]2C1 [Example 47, N-[(7S,8aS)-2-(2-ethylbutyl)octahydropyrrolo[1,2-a]pyrazin-7-yl]-3-(trifluoromethyl)benzenesulfonamide]"
10,5410,"CC(C)(C)c1ccnc(C(=O)N2CCN3C[C@H](Oc4cnc(C5CC5)cn4)C[C@H]3C2)c1 [Example 112, (4-tert-butylpyridin-2-yl)[(7R,8aS)-7-[(5-cyclopropylpyrazin-2-yl)oxy]-hexahydropyrrolo[1,2-a]pyrazin-2(1H)-yl]methanone]"
11,910,"O=C(c1ccc(C(F)(F)F)cc1)N1CCN2C[C@@H](NS(=O)(=O)c3cccc(C(F)(F)F)c3)C[C@H]2C1 [Example 44, 3-(trifluoromethyl)-N-{(7S,8aS)-2-[4-(trifluoromethyl)benzoyl]-octahydropyrrolo[1,2-a]pyrazin-7-yl}benzenesulfonamide]"
12,2130,"FC(F)(F)c1cccc(CN2CCN3C[C@H](Oc4ccc(Cl)cn4)C[C@H]3C2)c1 [Example 91, (7R,8aS)-7-[(5-chloropyridin-2-yl)oxy]-2-[3-(trifluoromethyl)benzyl]-octahydropyrrolo[1,2-a]pyrazine]"
13,6460,"COc1c(F)ccc(C(=O)N2CCN3C[C@H](Oc4cnc(C5CC5)cn4)C[C@H]3C2)c1F [Example 135, [(7R,8aS)-7-[(5-cyclopropylpyrazin-2-yl)oxy]hexahydropyrrolo[1,2-a]-pyrazin-2(1H)-yl](2,4-difluoro-3-methoxyphenyl)methanone]"
14,2680,"O=C(c1ccc(C(F)(F)F)cc1)N1CCN2C[C@H](Oc3cnc(C4CC4)cn3)C[C@H]2C1 [Example 71, [(7R,8aS)-7-[(5-cyclopropylpyrazin-2-yl)oxy]hexahydropyrrolo[1,2-a]-pyrazin-2(1H)-yl][4-(trifluoromethyl)phenyl]methanone]"
15,7220,"O=C(N[C@H]1C[C@H]2CN(C(=O)c3cccc(C(F)(F)F)c3)CCN2C1)c1ccc(F)cc1 [Example 2, 4-fluoro-N-{(7S,8aS)-2-[3-(trifluoromethyl)benzoyl]octahydropyrrolo[1,2-a]pyrazin-7-yl}benzamide]"
16,1060,"FC(F)(F)c1cccc(N2CCN3CC[C@@H](Oc4ccc(Cl)cn4)[C@H]3C2)n1 (relative stereo) [Example 102, (8R*,8aR*)-8-[(5-chloropyridin-2-yl)oxy]-2-[6-(trifluoromethyl)pyridin-2-yl]octahydropyrrolo[1,2-a]pyrazine]"
17,2750,"O=C(NC(C(=O)N1CCN2C[C@H](Oc3cnc(C4CC4)cn3)C[C@H]2C1)c1cccc(C(F)(F)F)c1)C(F)F (stereo partly drawn) [Example 208, N-{2-[(7R,8aS)-7-[(5-cyclopropylpyrazin-2-yl)oxy]hexahydropyrrolo[1,2-a]pyrazin-2(1H)-yl]-2-oxo-1-[3-(trifluoromethyl)phenyl]ethyl}-2,2-difluoroacetamide]"
18,4360,"FC(F)(F)c1cccc(N2CCN3C[C@@H](Oc4ccc(Cl)cn4)C[C@H]3C2)n1 [Example 93, (7S,8aS)-7-[(5-chloropyridin-2-yl)oxy]-2-[6-(trifluoromethyl)pyridin-2-yl]-octahydropyrrolo[1,2-a]pyrazine]"
19,1540,"O=C(c1cccc(C(F)(F)F)c1F)N1CCN2C[C@H](Oc3cnc(C4CC4)cn3)C[C@H]2C1 [Example 80, [(7R,8aS)-7-[(5-cyclopropylpyrazin-2-yl)oxy]hexahydropyrrolo[1,2-a]-pyrazin-2(1H)-yl][2-fluoro-3-(trifluoromethyl)phenyl]methanone]"
20,13100,"O=C(CCC(F)(F)F)N1CCN2C[C@@H](Nc3cccc(C(F)(F)F)n3)C[C@H]2C1 [Example 29, 4,4,4-trifluoro-1-[(7S,8aS)-7-{[6-(trifluoromethyl)pyridin-2-yl]amino}-hexahydropyrrolo[1,2-a]pyrazin-2(1H)-yl]butan-1-one]"
21,670,"O=C(C(c1cccc(C(F)(F)F)c1)N1CCC(F)(F)C1)N1CCN2C[C@H](Oc3cnc(C4CC4)cn3)C[C@H]2C1 (stereo partly drawn) [Example 203, 1-[(7R,8aS)-7-[(5-cyclopropylpyrazin-2-yl)oxy]hexahydropyrrolo[1,2-a]-pyrazin-2(1H)-yl]-2-(3,3-difluoropyrrolidin-1-yl)-2-[3-(trifluoromethyl)phenyl]ethanone]"
22,5680,"O=C(C1CCCCC1)N1CCN2C[C@H](Oc3ccc(Cl)cn3)C[C@H]2C1 [Example 64, [(7R,8aS)-7-[(5-chloropyridin-2-yl)oxy]hexahydropyrrolo[1,2-a]pyrazin-2(1H)-yl](cyclohexyl)methanone]"
23,1370,"O=S(=O)(Cc1ccc(Cl)cc1)N[C@@H]1CCN2CCN(c3cccc(C(F)(F)F)n3)C[C@H]12 (relative stereo) [Example 97, 1-(4-chlorophenyl)-N-{(8R*,8aR*)-2-[6-(trifluoromethyl)pyridin-2-yl]-octahydropyrrolo[1,2-a]pyrazin-8-yl}methanesulfonamide]"
24,10800,"O=C(c1cc(F)c(F)c(F)c1)N1CCN2C[C@H](Oc3cnc(C4CC4)cn3)C[C@H]2C1 [Example 74, [(7R,8aS)-7-[(5-cyclopropylpyrazin-2-yl)oxy]hexahydropyrrolo[1,2-a]-pyrazin-2(1H)-yl](3,4,5-trifluorophenyl)methanone]"
25,940,"O=S(=O)(N[C@H]1C[C@H]2CN(Cc3cccc(C(F)(F)F)c3)CCN2C1)c1cccc(C(F)(F)F)c1 [Example 46, 3-(trifluoromethyl)-N-{(7S,8aS)-2-[3-(trifluoromethyl)benzyl]-octahydropyrrolo[1,2-a]pyrazin-7-yl}benzenesulfonamide]"
26,4860,"O=C(c1ccc(F)cc1)N1CCN2C[C@@H](NS(=O)(=O)c3cccc(C(F)(F)F)c3)C[C@H]2C1 [Example 43, N-[(7S,8aS)-2-(4-fluorobenzoyl)octahydropyrrolo[1,2-a]pyrazin-7-yl]-3-(trifluoromethyl)benzenesulfonamide]"
27,11800,"O=C(N[C@H]1C[C@H]2CN(C(=O)c3ccc(F)cc3)CCN2C1)c1cccc(C(F)(F)F)c1 [Example 11, N-[(7S,8aS)-2-(4-fluorobenzoyl)octahydropyrrolo[1,2-a]pyrazin-7-yl]-3-(trifluoromethyl)benzamide]"
28,3470,"O=C(N[C@H]1C[C@H]2CN(C(c3ccccc3)c3ccccc3)CCN2C1)c1ccc(F)cc1 [Example 17, N-[(7S,8aS)-2-(diphenylmethyl)octahydropyrrolo[1,2-a]pyrazin-7-yl]-4-fluorobenzamide]"
29,7050,"O=C(c1ccc(F)c(Cl)c1)N1CCN2C[C@H](Oc3cnc(C4CC4)cn3)C[C@H]2C1 [Example 82, (3-chloro-4-fluorophenyl)[(7R,8aS)-7-[(5-cyclopropylpyrazin-2-yl)oxy]-hexahydropyrrolo[1,2-a]pyrazin-2(1H)-yl]methanone]"

row,Structure (SMILES),IC50 [nM]
1,"O=C(Cc1ccc(Cl)c(F)c1)N1CCN2C[C@H](Oc3cnc(C4CC4)cn3)C[C@H]2C1 [Example 143, 2-(4-chloro-3-fluorophenyl)-1-[(7R,8aS)-7-[(5-cyclopropylpyrazin-2-yl)-oxy]hexahydropyrrolo[1,2-a]pyrazin-2(1H)-yl]ethanone]",1590
2,"O=C(Cc1cccc(C(F)(F)F)c1)N1CCN2C[C@H](Oc3cnc(C4CC4)cn3)C[C@H]2C1 [Example 134, 1-[(7R,8aS)-7-[(5-cyclopropylpyrazin-2-yl)oxy]hexahydropyrrolo[1,2-a]-pyrazin-2(1H)-yl]-2-[3-(trifluoromethyl)phenyl]ethanone]",380
3,"FC(F)(F)c1ccnc(N[C@H]2C[C@H]3CNCCN3C2)n1 [Example 33, (7S,8aS)-N-[4-(trifluoromethyl)pyrimidin-2-yl]octahydropyrrolo[1,2-a]-pyrazin-7-amine]",> 30000
